Measured values: US11041000B2, “Peptide inhibitors of interleukin-23 receptor and their use to treat inflammatory diseases” (priority 2019, dated 2021)
At least one peptide structure holds a part that was inferred or is arguable (an end, a ring closure or a residue). Numbered stars: 1 amine (or outer) side, 2 acyl side, 3 side chain; on linkers, the order of the positions; unused ones are H or OH. Bridge positions count the residues as written; N and C are the ends. Square brackets hold non-standard residues; d marks the D form. Peptide text beside a SMILES is read from it. Trp(7-Me) = Cc1cccc2c(C[C@H](N)C(=O)O)c[nH]c12; Abu(4-yl) = O=C([C@H](CC[*:3])N[*:1])[*:2]; 2Nal = N[C@@H](Cc1ccc2ccccc2c1)C(=O)O; AEF = NCCOc1ccc(C[C@H](N)C(=O)O)cc1; Cit = NC(=O)NCCC[C@H](N)C(=O)O; Pen = CC(C)(S)[C@H](N)C(=O)O; αMeK = C[C@](N)(CCCCN)C(=O)O; Aib = CC(C)(N)C(=O)O; βAla = NCCC(=O)O

Target: IL-23R-expressing DB cells (Homo sapiens, UniProt Q5VWK5)
Test: DB cells IL23R pSTAT3 cell assay (pStat3HTRF)
Format: cell-based
Settings: DB cells stimulated with IL-23 0.5 nM, 30 minutes, phospho-STAT3 in cell lysates; read-out: pStat3 HTRF
From the text: Human ELISA indicates the IL23-IL23R competitive binding assay described below, Rat ELISA indicates the rat IL-23R competitive binding ELISA assay described below, and pStat3HTRF indicates the DB cells IL-23R pSTAT3 cell assay described below. The peptides depicted in Table E1 are cyclized via a disulfide bridge formed between two Pen residues in these peptides. The peptides depicted in Table E2 are cyclized via a thioether bond between the indicated amino acid residues. Table E2 provides an illustrative structure depicting thioether cyclization, which is indicated in the table by the term “cyclo,” with the cyclic region bracketed immediately following the term “cyclo.” For certain peptides, the residue Abu is present where indicated, whereas in other embodiments, e.g., those related to the non-cyclized form, the Abu may be referred to as a hSer(Cl) or homoSer residue. The petpides depicted in Table E3 are cyclized via a disulfide bridge formed between two Pen residues or a thioether bond between Abu and Cys.
IL-23 plays a central role in supporting and maintaining Th17 differentiation in vivo. This process is thought to be mediated primarily through the Signal Transducer and Activator of Transcription 3 (STAT3), with phosphorylation of STAT3 (to yield pSTAT3) leading to upregulation of RORC and pro-inflammatory IL-17. This cell assay examines the levels of pSTAT3 in IL-23R-expressing DB cells when stimulated with IL-23 in the presence of test compounds. Serial dilutions of test peptides and IL-23 (Humanzyme #HZ-1261) at a final concentration of 0.5 nM, were added to each well in a 96 well tissue culture plate (Corning #CLS3894). DB cells (ATCC #CRL-2289), cultured in RPMI-1640 medium (Thermo Scientific #11875093) supplemented with 10% FBS, were added at 5×10E5 cells/well and incubated for 30 minutes at 37° C. in a 5% CO2 humidified incubator. Changes in phospho-STAT3 levels in the cell lysates were detected using the Cisbio HTRF pSTAT3 (Tyr705) Cellular Assay Kit (Cisbio #62AT3PEH), according to manufacturer's Two Plate Assay protocol.

Sequence of IL-23R-expressing DB cells (Q5VWK5 24-629 limits assumed): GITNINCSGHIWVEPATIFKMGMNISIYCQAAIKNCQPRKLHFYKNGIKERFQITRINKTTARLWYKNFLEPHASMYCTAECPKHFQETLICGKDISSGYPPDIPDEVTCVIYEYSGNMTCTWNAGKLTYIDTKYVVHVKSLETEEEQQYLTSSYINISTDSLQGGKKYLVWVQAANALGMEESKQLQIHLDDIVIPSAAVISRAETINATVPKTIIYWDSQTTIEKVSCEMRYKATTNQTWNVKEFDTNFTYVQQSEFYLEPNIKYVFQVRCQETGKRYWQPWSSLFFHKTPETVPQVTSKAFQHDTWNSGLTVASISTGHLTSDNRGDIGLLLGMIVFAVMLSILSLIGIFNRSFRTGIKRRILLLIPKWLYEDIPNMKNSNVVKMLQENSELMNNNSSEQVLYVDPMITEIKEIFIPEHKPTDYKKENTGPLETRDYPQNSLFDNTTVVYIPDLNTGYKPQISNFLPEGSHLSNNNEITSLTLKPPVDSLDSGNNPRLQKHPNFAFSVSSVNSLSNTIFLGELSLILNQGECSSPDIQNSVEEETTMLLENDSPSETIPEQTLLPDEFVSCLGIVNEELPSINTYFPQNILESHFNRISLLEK

| Structure (SMILES) | IC50 |
| --- | --- |
| CC(=O)NCCCC[C@H](NC(=O)[C@](C)(CCCCN)NC(=O)[C@H](Cc1ccc2ccccc2c1)NC(=O)[C@H](Cc1ccc(OCCN)cc1)NC(=O)[C@H]1NC(=O)[C@H](CCCNC(N)=O)NC(=O)[C@H](Cc2c[nH]c3c(C)cccc23)NC(=O)[C@H]([C@@H](C)O)NC(=O)[C@H](CC(N)=O)NC(=O)[C@@H](NC(C)=O)C(C)(C)SSC1(C)C)C(=O)N[C@@H](CC(N)=O)C(=O)N[C@@H](C(N)=O)[C@H](C)O [compound 263] (Ac-[Pen]NT[Trp(7-Me)][Cit][Pen][AEF][2Nal][αMeK]K(Ac)N[dT]-NH2; disulfide 1-6) | 0.603 nM |
| CC(=O)N[C@@H]1C(=O)N[C@@H](CC(N)=O)C(=O)N[C@@H]([C@@H](C)O)C(=O)N[C@@H](Cc2c[nH]c3c(C)cccc23)C(=O)N[C@@H](CCC(N)=O)C(=O)N[C@H](C(=O)N[C@@H](Cc2ccc(OCCN)cc2)C(=O)N[C@@H](Cc2ccc3ccccc3c2)C(=O)N[C@@](C)(CCCCN)C(=O)N[C@@H](CCC(=O)O)C(=O)N[C@@H](CC(N)=O)C(=O)NCCC(N)=O)C(C)(C)SSC1(C)C [compound 282] | 1.37 nM |
| CC(=O)NCCCC[C@H](NC(=O)C1(NC(=O)[C@H](Cc2ccc3ccccc3c2)NC(=O)[C@H](Cc2ccc(OCCN)cc2)NC(=O)[C@H]2NC(=O)[C@H](CCC(N)=O)NC(=O)[C@H](Cc3c[nH]c4c(C)cccc34)NC(=O)[C@H]([C@@H](C)O)NC(=O)[C@H](CC(N)=O)NC(=O)[C@@H](NC(C)=O)C(C)(C)SSC2(C)C)CCCCC1)C(=O)N[C@@H](CC(N)=O)C(=O)NCCC(N)=O [compound 274] | 0.484 nM |
| CC(=O)NCCCC[C@@H]1NC(=O)[C@H](Cc2c[nH]c3c(C)cccc23)NC(=O)[C@H]([C@@H](C)O)NC(=O)[C@H](CCC(N)=O)NC(=O)[C@@H](NC(=O)[C@@H](CCCNC(=N)N)NC(C)=O)CCSC[C@@H](C(=O)N[C@@H](Cc2ccc(OCCN)cc2)C(=O)N[C@@H](Cc2ccc3ccccc3c2)C(=O)N[C@@](C)(CCCCN)C(=O)N[C@@H](CCCCNC(C)=O)C(=O)N[C@@H](CC(N)=O)C(N)=O)NC1=O [compound 326] (Ac-[dR][Abu(4-yl)]QT[Trp(7-Me)]K(Ac)C[AEF][2Nal][αMeK]K(Ac)N-NH2; thioether 2-7) | 18.4 nM |
| CC(=O)NCCCC[C@H](NC(=O)[C@](C)(CCCCN)NC(=O)[C@H](Cc1ccc2ccccc2c1)NC(=O)[C@H](Cc1ccc(OCCN)cc1)NC(=O)[C@H]1NC(=O)[C@H](CCCNC(N)=O)NC(=O)[C@H](Cc2c[nH]c3c(C)cccc23)NC(=O)[C@H]([C@@H](C)O)NC(=O)[C@H](CC(N)=O)NC(=O)[C@@H](NC(C)=O)C(C)(C)SSC1(C)C)C(=O)N[C@@H](CC(N)=O)C(=O)N[C@@H](Cc1ccc(O)cc1)C(N)=O [compound 266] (Ac-[Pen]NT[Trp(7-Me)][Cit][Pen][AEF][2Nal][αMeK]K(Ac)NY-NH2; disulfide 1-6) | 2.78 nM |
| CC(=O)NCCCC[C@@H]1NC(=O)[C@H](Cc2c[nH]c3c(C)cccc23)NC(=O)[C@H]([C@@H](C)O)NC(=O)[C@H](CCCNC(N)=O)NC(=O)[C@@H](NC(C)=O)C(C)(C)SSC(C)(C)[C@@H](C(=O)N[C@@H](Cc2ccc(OCCN)cc2)C(=O)N[C@@H](Cc2ccc3ccccc3c2)C(=O)N[C@@](C)(CCCCN)C(=O)N[C@@H](CCCCNC(C)=O)C(=O)N[C@@H](CC(N)=O)C(=O)N[C@H](CC(C)C)C(N)=O)NC1=O [compound 331] (Ac-[Pen][Cit]T[Trp(7-Me)]K(Ac)[Pen][AEF][2Nal][αMeK]K(Ac)N[dL]-NH2; disulfide 1-6) | 0.834 nM |
| CC(=O)NCCCC[C@@H]1NC(=O)[C@H](Cc2c(C)[nH]c3ccccc23)NC(=O)[C@H]([C@@H](C)O)NC(=O)[C@H](CC(N)=O)NC(=O)[C@@H](NC(C)=O)C(C)(C)SSC(C)(C)[C@@H](C(=O)N[C@@H](Cc2ccc(OCCN)cc2)C(=O)N[C@@H](Cc2ccc3ccccc3c2)C(=O)N[C@@](C)(CCCCN)C(=O)N[C@@H](CCCCNC(C)=O)C(=O)N[C@@H](CC(N)=O)C(=O)N[C@H](CCCCN)C(N)=O)NC1=O [compound 351] | 11.3 nM |
| CC(=O)NCCCC[C@H](NC(=O)[C@](C)(CCCCN)NC(=O)[C@H](Cc1ccc2ccccc2c1)NC(=O)[C@H](Cc1ccc(OCCN)cc1)NC(=O)[C@H]1NC(=O)[C@H](CCC(N)=O)NC(=O)[C@H](Cc2c[nH]c3cc(Cl)ccc23)NC(=O)[C@H]([C@@H](C)O)NC(=O)[C@H](CC(N)=O)NC(=O)[C@@H](NC(C)=O)C(C)(C)SSC1(C)C)C(=O)N[C@@H](CC(N)=O)C(=O)NCCC(N)=O [compound 228] | 25.7 nM |
| CC(=O)NCCCC[C@H](NC(=O)[C@](C)(CCCCN)NC(=O)[C@H](Cc1ccc2ccccc2c1)NC(=O)[C@H](Cc1ccc(OCCN)cc1)NC(=O)[C@H]1NC(=O)[C@H](CCCNC(N)=O)NC(=O)[C@H](Cc2c[nH]c3c(C)cccc23)NC(=O)[C@H]([C@@H](C)O)NC(=O)[C@H](CC(N)=O)NC(=O)[C@@H](NC(C)=O)C(C)(C)SSC1(C)C)C(=O)NCCC(=O)NCCC(N)=O [compound 268] (Ac-[Pen]NT[Trp(7-Me)][Cit][Pen][AEF][2Nal][αMeK]K(Ac)[βAla][βAla]-NH2; disulfide 1-6) | 3.24 nM |
| CC(=O)NCCCC[C@H](NC(=O)[C@](C)(CCCCN)NC(=O)[C@H](Cc1ccc2ccccc2c1)NC(=O)[C@H](Cc1ccc(OCCN)cc1)NC(=O)[C@H]1NC(=O)[C@H](CCCNC(N)=O)NC(=O)[C@H](Cc2c[nH]c3c(C)cccc23)NC(=O)[C@H]([C@@H](C)O)NC(=O)[C@H](CC(N)=O)NC(=O)[C@@H](NC(C)=O)C(C)(C)SSC1(C)C)C(=O)N[C@@H](CC(N)=O)C(=O)NC(C)(C)C(=O)N[C@H](Cc1ccccc1)C(N)=O [compound 346] (Ac-[Pen]NT[Trp(7-Me)][Cit][Pen][AEF][2Nal][αMeK]K(Ac)N[Aib][dF]-NH2; disulfide 1-6) | 0.784 nM |
| CC(=O)NCCCC[C@@H]1NC(=O)[C@H](Cc2c[nH]c3c(C)cccc23)NC(=O)[C@H]([C@@H](C)O)NC(=O)CNC(=O)[C@@H](NC(C)=O)C(C)(C)SSC(C)(C)[C@@H](C(=O)N[C@@H](Cc2ccc(OCCN)cc2)C(=O)N[C@@H](Cc2ccc3ccccc3c2)C(=O)N[C@@](C)(CCCCN)C(=O)N[C@@H](CCCCNC(C)=O)C(=O)N[C@@H](CC(N)=O)C(=O)N[C@H](CC(C)C)C(N)=O)NC1=O [compound 329] (Ac-[Pen]GT[Trp(7-Me)]K(Ac)[Pen][AEF][2Nal][αMeK]K(Ac)N[dL]-NH2; disulfide 1-6) | 0.77 nM |
| CC(=O)NCCCC[C@H](NC(=O)[C@](C)(CCCCN)NC(=O)[C@H](Cc1ccc2ccccc2c1)NC(=O)[C@H](Cc1ccc(OCCN)cc1)NC(=O)[C@H]1NC(=O)[C@H](CCC(N)=O)NC(=O)[C@H](Cc2c(C(C)(C)C)[nH]c3c(C(C)(C)C)cc(C(C)(C)C)cc23)NC(=O)[C@H]([C@@H](C)O)NC(=O)[C@H](CC(N)=O)NC(=O)[C@@H](NC(C)=O)C(C)(C)SSC1(C)C)C(=O)N[C@@H](CC(N)=O)C(=O)NCCC(N)=O [compound 233] | > 1000 nM |
| CC(=O)NCCCC[C@@H]1NC(=O)[C@H](Cc2c[nH]c3c(C)cccc23)NC(=O)[C@H]([C@@H](C)O)NC(=O)[C@H](CC(N)=O)NC(=O)[C@@H](NC(C)=O)C(C)(C)SSC(C)(C)[C@@H](C(=O)N[C@@H](Cc2ccc(OCCN)cc2)C(=O)N[C@@H](Cc2ccc3ccccc3c2)C(=O)N[C@@](C)(CCCCN)C(=O)N[C@@H](CCCCNC(C)=O)C(=O)N[C@@H](CC(N)=O)C(=O)N[C@H](C(N)=O)C(C)C)NC1=O [compound 250] | 1.82 nM |
| CC(=O)N[C@@H]1C(=O)N[C@@H](CC(N)=O)C(=O)N[C@@H]([C@@H](C)O)C(=O)N[C@@H](Cc2c[nH]c3c(C)cccc23)C(=O)N[C@@H](CCC(N)=O)C(=O)N[C@H](C(=O)N[C@@H](Cc2ccc(OCCN)cc2)C(=O)N[C@@H](Cc2ccc3ccccc3c2)C(=O)N[C@@](C)(CC(C)C)C(=O)NCC(=O)N2CCC[C@@H]2C(=O)NCCC(N)=O)C(C)(C)SSC1(C)C [compound 220] | 195 nM |
| COc1cccc2c(C[C@@H]3NC(=O)[C@H]([C@@H](C)O)NC(=O)[C@H](CC(N)=O)NC(=O)[C@@H](NC(C)=O)C(C)(C)SSC(C)(C)[C@@H](C(=O)N[C@@H](Cc4ccc(OCCN)cc4)C(=O)N[C@@H](Cc4ccc5ccccc5c4)C(=O)N[C@@](C)(CCCCN)C(=O)N[C@@H](CCCCNC(C)=O)C(=O)N[C@@H](CC(N)=O)C(=O)N[C@H](CCCCN)C(N)=O)NC(=O)[C@H](CCC(N)=O)NC3=O)c[nH]c12 [compound 297] | 1.04 nM |
| CC(=O)NCCCC[C@H](NC(=O)[C@](C)(CCCCN)NC(=O)[C@H](Cc1ccc2ccccc2c1)NC(=O)[C@H](Cc1ccc(OCCN)cc1)NC(=O)[C@H]1NC(=O)[C@H](CCCNC(N)=O)NC(=O)[C@H](Cc2c[nH]c3c(C)cccc23)NC(=O)[C@H]([C@@H](C)O)NC(=O)[C@H](CC(N)=O)NC(=O)[C@@H](NC(C)=O)C(C)(C)SSC1(C)C)C(=O)N[C@@H](CC(N)=O)C(=O)N[C@H](Cc1ccccc1)C(N)=O [compound 257] (Ac-[Pen]NT[Trp(7-Me)][Cit][Pen][AEF][2Nal][αMeK]K(Ac)N[dF]-NH2; disulfide 1-6) | 3.88 nM |
